Test results reported in PubChem BioAssay AID1345082 (National Center for Advancing Translational Sciences (NCATS), 2018).
Among all 94,000 compounds or so, about 4,000 (4.3%) were called active. The shares of active, inactive and inconclusive entries below differ from those in the screen. Calls follow the shape of the dose curve; as a rule, active = well fitted inhibition curve with a large enough effect; inconclusive = small, poorly fitted or top-dose-only effect; inactive = no such curve, though single readings can be large or run the other way. Potencies beside an inconclusive call are fits to weak or partial responses and may not hold up.

assay: Cytotoxic Profiling in NIH 3T3 Cell Line of Diverse Libraries Using Quantitative High-Throughput Screening; settings: NIH 3T3 viability, CellTiter-Glo ATP luminescence, 48-72 h; series mostly up to 96.7 µM; activity change, negative = cytotoxicity: at the top concentration; also: nearly all actives have a fitted effect of over 55% in size
Procedure, shortened: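 Cells were seeded at 400 per well, treated with pin-transferred compound, and kept 48 or 72 hr at 37 °C before CellTiter-Glo addition and luminescence imaging of cellular ATP.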
% is scaled to controls: 0 for no effect and ±100 for the full control effect; potency is read from the fitted curve at half-maximal effect; tags tell the direction and shape of the fitted curve.

| Compound | Potency | activity change, negative = cytotoxicity | outcome |
| --- | --- | --- | --- |
| FC(F)(F)CN1C2CCC1CN(c1cnc3ccccc3c1)C2 | inconclusive: 50.1 µM [inhibitor, partial curve, poor fit] | – | – |
| CCOC(=O)[C@H]1CN(C(=O)NCc2ccccc2)[C@]2(C)C(=O)N(CC3CC3)c3ccccc3[C@H]12 | inconclusive: 28.2 µM [inhibitor, partial curve] | – | – |
| COCC1CN(C)CC12CCN(C(=O)c1cncc(C)c1)CC2 (stereo not drawn) | – | inactive: -17% | – |
| Cc1nc(-c2ccc(N(C)C)cc2)cc([C@H]2CN3CC[C@H]2C[C@@H]3CNC(=O)C2CC2)n1 | active: 100 µM | – | – |
| c1nc(N2CCOCC2)ncc1CN1CC[C@H]2CNC[C@H]21 | – | inactive: -4.82% | – |
| CCOC(=O)[C@@H]1[C@H]2c3ccccc3N(C)C(=O)[C@H]2N(C(=O)NC2CCCC2)[C@@H]1c1ccccc1 | inconclusive: 44.7 µM [inhibitor, partial curve, poor fit] | – | – |
| O=C(NC1CCCCC1)OC[C@H]1C[C@@H]2CCN1C[C@@H]2c1cc(C2CCCC2)nc(-c2ccncc2)n1 | inconclusive: 20 µM [inhibitor, full curve, poor fit] | – | – |
| Cc1ncc2c(n1)C[C@@H]1CC[C@H]2N1C(=O)c1nn(C)c2ccccc12 | – | inactive: -12% | – |
| CC(=O)Nc1ccc(S(=O)(=O)NC[C@H]2C[C@@H]3CCN2C[C@@H]3c2cc(-c3ccccc3Br)nc(C)n2)cc1 | inconclusive: 56.2 µM [inhibitor, partial curve, poor fit] | – | – |
| c1cnc2nc(C3CCCNC3)[nH]c2c1 (stereo not drawn) | inactive | – | – |
| CC(C)CCN(C1CCNCC1)C1CCOCC1 | – | inactive: -2.84% | – |
| COc1cc2c(cc1OCCN(C)C)NC(=O)C21CCN(Cc2ccccc2)CC1 | inconclusive: 89.1 µM [inhibitor, partial curve, poor fit] | – | – |
| O=C(Nc1ccc2n(c1=O)C[C@H]1C[C@@H]2CN(c2ncccn2)C1)c1ccccc1 | – | inactive: -26.7% [at 174 µM] | – |
| CCC(CC)c1cc([C@H]2CN3CC[C@H]2C[C@@H]3CNC(=O)Nc2ccc(C(C)=O)cc2)nc(-c2ccncc2)n1 | active: 17.8 µM | – | – |
| CCCSc1ncc(CN2CC[C@H]3CNC[C@H]32)cn1 | – | inactive: -19.6% | – |
| COc1ccc(S(=O)(=O)NC[C@H]2C[C@@H]3CCN2C[C@@H]3CN2CCC(Cc3ccccc3)CC2)cc1 | active: 12.6 µM | – | – |
| O=C(Cc1ccc(F)cc1)N1CCN(C2CCN(Cc3cccnc3)C2=O)CC1 (stereo not drawn) | – | inactive: -13.6% | – |
| Cn1nc(C2CCCCC2)cc1[C@H]1CN2CC[C@H]1C[C@@H]2CNS(=O)(=O)c1ccccc1 | inconclusive: 39.8 µM [inhibitor, partial curve, poor fit] | – | – |
| Cn1nc(-c2ccc(F)cc2)cc1[C@H]1CN2CC[C@H]1C[C@@H]2CNS(=O)(=O)c1cccs1 | inconclusive: 89.1 µM [inhibitor, single point] | – | – |
| CCn1nccc1C(=O)N1CCC2(CC1)c1nccn1-c1ccccc1CN2C | inconclusive: 70.8 µM [inhibitor, single point] | – | – |
| O=C1Nc2ccccc2C12CCN(Cc1ccc(C(F)(F)F)cc1)CC2 | inconclusive: 39.8 µM [inhibitor, partial curve, poor fit] | – | – |

| Compound | Potency | activity change, negative = cytotoxicity | outcome |
| --- | --- | --- | --- |
| CC[C@H]1CN2CC[C@H]1C[C@@H]2CNCc1ccc(C(F)(F)F)cc1 | active: 89.1 µM | – | – |
| O=C(Nc1ccc2n(c1=O)C[C@H]1C[C@@H]2CN(C(=O)c2ccccn2)C1)c1ccccc1 | inconclusive: 126 µM [inhibitor, single point] | – | – |
| O=C1NC2(CCN(Cc3cccnc3)C2)Oc2ccccc21 (stereo not drawn) | – | inactive: -13.8% [at 138 µM] | – |
| CC(C)CN(Cc1cccnc1)C1CN(C(=O)Cc2cccc(F)c2)C1 | inconclusive: 14.1 µM [inhibitor, full curve, poor fit] | – | – |
| CCCNC(=O)OC[C@H]1C[C@@H]2CCN1C[C@@H]2c1cc(-c2ccccc2OC)nc(C)n1 | active: 63.1 µM | – | – |
| COc1ccc(OC)c(S(=O)(=O)NC[C@H]2C[C@@H]3CCN2C[C@@H]3c2cc(-c3ccc4ccccc4c3)nn2C)c1 | inconclusive: 89.1 µM [inhibitor, single point] | – | – |
| COc1cc2c(cc1OCC1CC1)NC(=O)C21CCN(C(=O)c2ccccc2)CC1 | inconclusive: 112 µM [inhibitor, single point] | – | – |
| CCOC(=O)[C@H]1CN(C(=O)c2ccc3c(c2)OCO3)[C@]2(C)C(=O)N(CCOC)c3ccccc3[C@H]12 | inconclusive: 35.5 µM [inhibitor, partial curve, poor fit] | – | – |
| CCOC(=O)[C@H]1CN(C(=O)CC(C)(C)C)[C@]2(C)C(=O)N(CC3CC3)c3ccccc3[C@H]12 | inconclusive: 31.6 µM [inhibitor, partial curve, poor fit] | – | – |
| CN(Cc1ccccc1)C[C@H]1CN2CC[C@H]1C[C@@H]2CNC(=O)Nc1ccsc1 | inconclusive: 100 µM [inhibitor, partial curve, poor fit] | – | – |
| N#Cc1ccc(CN2CCC3(CC2)C(=O)Nc2ccccc23)cc1 | inconclusive: 44.7 µM [inhibitor, partial curve, poor fit] | – | – |
| O=C1CO[C@H]2CN(Cc3ccccn3)C[C@H]2N1Cc1ccccn1 | inconclusive: 126 µM [inhibitor, single point] | – | – |
| CC(C)CCN1CCC2(CC1)C(=O)Nc1ccccc12 | – | inactive: -21.1% [at 138 µM] | – |
| CC[C@H]1CN2CC[C@H]1C[C@@H]2CNC(=O)c1cccc(F)c1 | – | inactive: -23.4% [at 230 µM] | – |
| O=C1NCCCCCN(Cc2ccccn2)[C@H]2CCC[C@@H]12 | inconclusive: 70.8 µM [inhibitor, single point] | – | – |
| Cc1[nH]cnc1-c1nccn1CCc1c[nH]c(=O)[nH]c1=O | – | inactive: -10.2% | – |
| COc1cc2c(cc1OCC1CC1)NC(=O)C21CCN(C(=O)c2cccnc2)CC1 | active: 25.1 µM | – | – |
| Cc1nc(-c2ccc(N(C)C)cc2)cc([C@H]2CN3CC[C@H]2C[C@@H]3CNC(=O)N2CCOCC2)n1 | inconclusive: 89.1 µM [inhibitor, single point] | – | – |
| COc1ccc(CCC(=O)N2[C@H]3CC[C@@H]2c2cnc(-c4ccc(F)cc4)nc2C3)cc1 | inconclusive: 15.8 µM [inhibitor, partial curve, poor fit] | – | – |
| CCC(CC)c1cc([C@H]2CN3CC[C@H]2C[C@@H]3CNC(=O)Cc2cccs2)nc(-c2ccncc2)n1 | active: 28.2 µM | – | – |
| O=C(CCc1c[nH]c2ccccc12)N1[C@H]2CC[C@@H]1c1cnc(-c3ccccc3)nc1C2 | – | inactive: -10.4% | – |

| Compound | Potency | activity change, negative = cytotoxicity | outcome |
| --- | --- | --- | --- |
| CC(=O)Nc1ccc(S(=O)(=O)NC[C@H]2C[C@@H]3CCN2C[C@@H]3c2cc(-c3ccco3)nc(C)n2)cc1 | inconclusive: 89.1 µM [inhibitor, single point] | – | – |
| CCC(CC)C(=O)NC[C@H]1C[C@@H]2CCN1C[C@@H]2c1cc(-c2ccc(OC)c(OC)c2)nn1C | – | inactive: -0.626% | – |
| Cc1cc(C(=O)N2[C@H]3CC[C@@H]2c2cnc(-c4ccccc4)nc2C3)nn1C | inconclusive: 35.5 µM [inhibitor, partial curve] | – | – |
| CC(C)CC(=O)N1CCC2(CC1)c1nccn1-c1ccccc1CN2C | – | inactive: -9.12% | – |
| O=C(Nc1ccc2n(c1=O)C[C@H]1C[C@@H]2CN(Cc2ccc(F)cc2)C1)c1cccs1 | inconclusive: 50.1 µM [inhibitor, partial curve, poor fit] | – | – |
| CC(=O)c1ccc(NC(=O)NC[C@H]2C[C@@H]3CCN2C[C@@H]3CN2CCN(c3ncccn3)CC2)cc1 | inconclusive: 50.1 µM [inhibitor, partial curve, poor fit] | – | – |
| COc1cc2c(cc1OCc1ccncc1)NC(=O)C21CCN(Cc2ccccn2)CC1 | inconclusive: 79.4 µM [inhibitor, partial curve, poor fit] | – | – |
| O=C(COc1ccc(F)cc1)N1[C@H]2CC[C@@H]1c1cnc(-c3ccc(F)cc3)nc1C2 | inconclusive: 3.16 µM [inhibitor, full curve] | – | – |
| O=C(Cc1cccc(Cl)c1)N1CCN(Cc2ccccc2-c2cccnc2)CC1 | inconclusive: 44.7 µM [inhibitor, partial curve, poor fit] | – | – |
| CC(C)CCN1CCCC2(CC(c3cccnc3)=NO2)C1 (stereo not drawn) | – | inactive: -9.04% [at 138 µM] | – |
| COc1ccc(-c2cc([C@H]3CN4CC[C@H]3C[C@@H]4CNC(=O)c3cccs3)n(C)n2)cc1 | inconclusive: 79.4 µM [inhibitor, partial curve, poor fit] | – | – |
| CC(C)CC(=O)N1[C@H]2CC[C@@H]1c1cnc(-c3ccc(F)cc3)nc1C2 | inconclusive: 4.47 µM [inhibitor, full curve] | – | – |
| COc1ccc(-c2cn(C[C@H]3CC4CCN3C[C@@H]4C(=O)NCCNC(C)=O)nn2)cc1 (stereo partly drawn) | – | inactive: -22.5% [at 174 µM] | – |
| O=S(=O)(NC[C@H]1C[C@@H]2CCN1C[C@@H]2CN1CCc2ccccc2C1)c1ccccc1 | inconclusive: 112 µM [inhibitor, partial curve, poor fit] | – | – |
| CN1CCN(C(=O)Cc2cccn2-c2ccc(Cl)cc2)CC1 | – | – | inactive |
| COCCOCC(=O)N1[C@H]2CC[C@@H]1c1cnc(-c3ccc(F)cc3)nc1C2 | inconclusive: 44.7 µM [inhibitor, partial curve, poor fit] | – | – |
| CC[C@H]1CN2CC[C@H]1C[C@@H]2CNCc1ccc2c(c1)OCO2 | – | inactive: -21.3% [at 174 µM] | – |
| COc1cc2c(cc1OCc1ccncc1)NC(=O)C21CCN(Cc2nccs2)CC1 | inconclusive: 79.4 µM [inhibitor, partial curve] | – | – |
| C#CCN(C)C[C@H]1CN2CC[C@H]1C[C@@H]2CNC(=O)c1ccc(C(F)(F)F)cc1 | – | inactive: -10.8% [at 174 µM] | – |
| Cc1ccc([C@H]2CN(C(=O)CN3C(=O)CNC3=O)[C@@H]3C4CCN(CC4)[C@H]23)cc1 | – | inactive: -0.0477% | – |
| O=C(COc1ccc(F)cc1)N1CCN2CCS(=O)(=O)N(C3CC3)C(=O)C2C1 (stereo not drawn) | – | inactive: 0.607% | – |
